Key:
Hu/Cy/Rh ROR1-His = target: T1, Hu/Cy/Rh ROR1-His (Homo sapiens, UniProt Q01973); assay: Biochemical binding to purified protein measured by SPR, Hu/Cy/Rh ROR1-His; design: species or system human/cyno/rhesus
T1 construct: His
Experimental: (§1) An initial assessment of antibody developability was performed by AC-SINS to evaluate the potential for self-interaction (FIG. 30). […] TABLES 2-5 provide this antibody characterization data in comparison to the known ROR-1 binding antibody UC961 including tabled results for biochemical binding to purified proteins and measured by SPR (TABLES 2-5), cellular binding to ROR-1 positive cell lines JeKo-1 and MDA-MB-468 (EC50) (TABLE 6), and cellular internalization (% internalized) (TABLE 7).

Mouse ROR1-His = target: T2, Mouse ROR1-His (Mus musculus, UniProt Q9Z139); assay: Biochemical binding to purified protein measured by SPR, Mouse ROR1-His
T2 construct: His
T2 sequence (Q9Z139 30-937): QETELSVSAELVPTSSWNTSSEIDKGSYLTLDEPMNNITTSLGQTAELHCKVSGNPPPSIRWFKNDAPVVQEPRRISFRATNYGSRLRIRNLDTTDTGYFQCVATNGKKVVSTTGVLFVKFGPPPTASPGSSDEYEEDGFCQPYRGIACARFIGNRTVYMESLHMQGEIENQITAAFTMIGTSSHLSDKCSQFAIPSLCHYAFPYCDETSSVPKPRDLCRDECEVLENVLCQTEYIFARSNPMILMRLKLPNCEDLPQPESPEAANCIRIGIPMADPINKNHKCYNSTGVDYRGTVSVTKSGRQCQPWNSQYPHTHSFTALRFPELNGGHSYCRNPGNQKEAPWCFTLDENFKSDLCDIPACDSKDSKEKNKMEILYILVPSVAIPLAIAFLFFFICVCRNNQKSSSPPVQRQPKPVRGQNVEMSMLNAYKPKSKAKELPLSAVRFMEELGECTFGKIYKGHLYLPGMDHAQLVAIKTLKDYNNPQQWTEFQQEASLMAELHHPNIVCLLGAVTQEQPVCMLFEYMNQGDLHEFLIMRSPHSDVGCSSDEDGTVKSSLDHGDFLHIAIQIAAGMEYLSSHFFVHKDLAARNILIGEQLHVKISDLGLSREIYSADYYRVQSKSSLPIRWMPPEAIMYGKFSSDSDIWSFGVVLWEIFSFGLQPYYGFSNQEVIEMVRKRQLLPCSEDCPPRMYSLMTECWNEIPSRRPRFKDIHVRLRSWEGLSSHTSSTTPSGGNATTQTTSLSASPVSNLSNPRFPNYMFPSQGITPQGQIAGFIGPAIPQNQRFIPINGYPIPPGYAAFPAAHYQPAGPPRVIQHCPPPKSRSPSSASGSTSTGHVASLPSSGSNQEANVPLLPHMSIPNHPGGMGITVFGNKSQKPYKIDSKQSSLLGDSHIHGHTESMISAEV
Experimental: as §1

ROR-1 on JeKo-1 cells = target: T3, ROR-1 on JeKo-1 cells (Homo sapiens, UniProt Q01973); assay: Cell binding saturation assay (flow cytometry), JeKo-1; conditions: FIG. 27, MFI by flow cytometry
T3 construct: endogenous in cells; host or cells: JeKo-1
From the text: FIG. 27 illustrates a measurement of cell binding saturation data for the anti-ROR-1 antibodies generated by the methods described herein. […] Cells were washed, stained with secondary antibody and cell binding saturation was detected by flow cytometry and reported as mean fluorescent intensity (MFI).
A cell binding saturation assay was developed to evaluate how well the anti_ROR-1 antibodies developed in Example 28 bound to endogenously expressed extracellular ROR-1 protein on cell lines. […] Briefly, two ROR-1 positive cell lines, JeKo-1 and MDA-MB-468, were incubated in a titration series concentration of each antibody construct. Cells were then washed and subjected to secondary antibody staining and detection by flow cytometry. Mean fluorescence (MFI) was determined by analysis on cytometer software. […] (See FIG. 27).

B1: ATX-P-885: anti-ROR-1 monoclonal antibody; heavy chain SEQ ID NO:21, light chain SEQ ID NO:28 (antibody)
heavy: QVQLQQWGAGLLKPSETLSLTCAVYGGSFSGYYWSWIRQPPGKGLEWIGEINHSGSTNYNPSLKSRVTISVDTSKNQFSLKLSSVTAADTAVYYCAREGVYEDYWGQGTLVTVSSASTKGPSVFPLAPSSKSTSGGTAALGCLVKDYFPEPVTVSWNSGALTSGVHTFPAVLQSSGLYSLSSVVTVPSSSLGTQTYICNVNHKPSNTKVDKRV[omitted - human IgG1 Fc]
light: EIVLTQSPATLSLSPGERATLSCRASQSVSNYLAWYQQKPGQAPRLLIYDAYNRATGIPARFSGSGSGTDFTLTISSLEPEDFAVYYCQQRSNWPLTFGQGTRLEIKRTVAAPSVFIFPPSDEQLKSGTASVVCLLNNFYPREAKVQWKVDNALQSGNSQESVTEQDSKDSTYSLSSTLTLSKADYEKHKVYACEVTHQGLSSPVTKSFNRGEC
In the case of B1, the “Rmax (RU)” value (Hu/Cy/Rh ROR1-His) is reported as 341.6 RU, the “ka (M − 1 s − 1)” value (Hu/Cy/Rh ROR1-His) is reported as 2.70E+05 M − 1 s − 1 and the “kd (s − 1)” value (Hu/Cy/Rh ROR1-His) is reported as 2.95E−03 s − 1. For the same molecule, the “Rmax (RU)” value (Mouse ROR1-His) was 73.5 RU, the “ka (M − 1 s − 1)” value (Mouse ROR1-His) was 2.92E+04 M − 1 s − 1 and the “kd (s − 1)” value (Mouse ROR1-His) was 1.32E−03 s − 1. The “cell binding saturation compared to UC961” value (ROR-1 on JeKo-1 cells) was “comparable to the cell binding saturation for UC961” and the “concentration needed to achieve binding saturation compared to UC961” value (ROR-1 on JeKo-1 cells) was “improved”.

— patent publication US12280121B2, “Immunoconjugates and methods” (Immunome, Inc., priority 2021, dated 2025)
